Reference: PMC4336329 (PLoS ONE, 2015)
About 2,200 (0.71%) of roughly 310,000 compounds showed an effect of 50% or more. The effect is printed as a negative number. The list shows a part of the results.

target: human ether-à-go-go-related gene (hERG) potassium channel (human, UniProt Q12809); test: primary screen, population patch clamp on CHO cells stably expressing hERG
Sequence (Q12809 whole entry, looked up): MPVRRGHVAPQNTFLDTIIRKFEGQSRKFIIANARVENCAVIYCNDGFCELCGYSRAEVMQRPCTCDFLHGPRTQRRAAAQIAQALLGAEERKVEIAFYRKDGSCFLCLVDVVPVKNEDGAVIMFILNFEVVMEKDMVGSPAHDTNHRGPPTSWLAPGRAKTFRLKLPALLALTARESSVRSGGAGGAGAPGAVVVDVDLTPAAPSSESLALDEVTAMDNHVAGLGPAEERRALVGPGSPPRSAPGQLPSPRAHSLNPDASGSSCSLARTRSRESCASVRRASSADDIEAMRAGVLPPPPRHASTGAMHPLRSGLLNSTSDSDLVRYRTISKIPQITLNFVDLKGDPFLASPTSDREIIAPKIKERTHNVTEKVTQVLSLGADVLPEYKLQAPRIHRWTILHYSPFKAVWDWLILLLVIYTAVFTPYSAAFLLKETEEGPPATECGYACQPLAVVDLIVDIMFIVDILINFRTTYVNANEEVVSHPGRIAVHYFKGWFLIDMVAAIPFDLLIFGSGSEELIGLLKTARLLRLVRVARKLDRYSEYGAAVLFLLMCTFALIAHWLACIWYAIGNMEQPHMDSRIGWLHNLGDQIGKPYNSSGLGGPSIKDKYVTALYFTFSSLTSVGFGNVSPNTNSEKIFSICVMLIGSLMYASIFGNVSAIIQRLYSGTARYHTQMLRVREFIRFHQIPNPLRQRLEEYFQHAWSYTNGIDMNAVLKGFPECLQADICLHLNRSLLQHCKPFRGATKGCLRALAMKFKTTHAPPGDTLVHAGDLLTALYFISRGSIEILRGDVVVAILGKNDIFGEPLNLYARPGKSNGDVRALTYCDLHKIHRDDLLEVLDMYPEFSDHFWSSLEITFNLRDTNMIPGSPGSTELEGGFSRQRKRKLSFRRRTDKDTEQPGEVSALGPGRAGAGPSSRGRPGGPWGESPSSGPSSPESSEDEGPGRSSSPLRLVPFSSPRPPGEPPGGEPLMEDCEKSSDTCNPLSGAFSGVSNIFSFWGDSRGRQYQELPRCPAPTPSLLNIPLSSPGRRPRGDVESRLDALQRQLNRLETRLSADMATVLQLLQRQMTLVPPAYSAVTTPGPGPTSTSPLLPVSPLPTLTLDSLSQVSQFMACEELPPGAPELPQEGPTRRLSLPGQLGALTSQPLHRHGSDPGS

| SMILES | hERG current change (%, negative = inhibition) at 1uM [%] |
| --- | --- |
| COc1ccc(N(CC(=O)N2CCN(Cc3ccc4c(c3)OCO4)CC2)S(C)(=O)=O)cc1OC | 17.6 |
| CCC(c1nnnn1Cc1ccccc1)N(Cc1cc2cc(OC)ccc2[nH]c1=O)CC1CCCO1 (stereo not shown) | 4.7 |
| COC(=O)C1=C(C)NC(=O)NC1c1ccccc1 (stereo not shown) | 5.58 |
| CCOC(=O)CNC(=O)c1ccccc1Br | 7.12 |
| Cc1ccccc1C(=O)Nc1ccc(C(=O)N/N=C/c2ccc(O)c(Br)c2)cc1 | 4.7 |
| Cn1c(N)c(Sc2ccc([N+](=O)[O-])cc2)c(=O)n(C)c1=O | 5.01 |
| CC(C)(C)CC(=O)NCc1ccc(F)cc1 | 7.52 |
| CC(=O)N(c1c(C)n(C)n(-c2ccccc2)c1=O)C1(C(=O)NC2CCCC2)CCCCC1 | 0.507 |
| CCOC(=O)CSc1nc2ccccc2c(=O)n1CCCCCC(=O)NCc1ccco1 | -5.3 |
| CC[C@@H]1[C@H]2CCCC(=O)N3CC[C@@H](C[C@@H]1OC(=O)NCc1ccccc1)[C@@H]23 | 5.5 |
| Cc1ccc(C(=O)NC2CCCCCC2)cc1N1CCCC1=O | 5.47 |
| COc1ccc(C2SCC(=O)N2c2ccc(C)cc2)cc1 (stereo not shown) | 15.3 |
| O=c1ccc(-c2ccccc2)no1 | 10.7 |
| O=C(Nc1ccc(Nc2ccccc2)cc1)c1ccc(Cl)cc1Cl | 7.23 |
| COc1ccc(OCC(=O)N/N=C/C2CC=CCC2)cc1 (stereo not shown) | 7.11 |
| Cc1ccc(N2C(=O)C3CCC(C)(C2=O)C3(C)C)cc1C (stereo not shown) | 11.2 |
| O=C(N/N=C/c1ccc2c(c1)OCO2)C(=O)Nc1ccccc1 | 10.4 |
| NS(=O)(=O)c1cc2c(cc1C(F)(F)F)NCNS2(=O)=O | -6.31 |
| COc1ccc(C(=O)OC(C)C(=O)NC(C)CCc2ccccc2)cc1OC (stereo not shown) | 3.33 |
| c1ccc2c(c1)OCC(c1nnc3sc(-c4cnccn4)nn13)O2 (stereo not shown) | -3.17 |
| CC(CCn1cccn1)NC(=O)CCc1nnc(CCc2ccccc2)o1 (stereo not shown) | -2.24 |
| CC(C)CC(=O)Nc1ccccc1-c1nnn(CC(=O)N2CCOCC2)n1 | -0.477 |

| SMILES | hERG current change (%, negative = inhibition) at 1uM [%] |
| --- | --- |
| Cn1cc(CCNC(=O)CCc2nnc(CCCCc3ccccc3)o2)cn1 | 7.57 |
| CCN(CC)CCNC(=O)c1ccc(NC(=O)c2cc(S(=O)(=O)N3CCCCC3)ccc2C)cc1 | 18.1 |
| CC(=NCCc1ccccc1)c1c(O)n(C)c(=O)n(C)c1=O | 8.91 |
| O=C(NCC1CCCN(C(=O)NCc2ccccc2)C1)c1ccc2c(c1)OCO2 (stereo not shown) | 4.39 |
| CC(=O)COc1ncnc2c(Cl)cc(Cl)cc12 | 18 |
| CCN(Cc1ccccc1)C(=O)c1ccc(CNS(=O)(=O)c2ccc(C)cc2)cc1 | 3.34 |
| COc1cc(CNCCNC(=O)c2nonc2N)ccc1OCc1ccc(Cl)nc1.Cl | -16.9 |
| CC1CCN(c2oc(-c3ccco3)nc2S(=O)(=O)c2ccccc2)CC1 | 8.03 |
| CCS(=O)(=O)NCCc1cc2ccc(C)cc2[nH]c1=O | -19.8 |
| O=S(Cc1ccc(Br)cc1)Cc1nnc(SCc2c(Cl)cccc2Cl)n1-c1ccccc1 (stereo not shown) | -9.62 |
| O=[N+]([O-])c1ccccc1S(=O)(=O)Nc1ccc(S(=O)(=O)Nc2nccs2)cc1 | 8.63 |
| CCc1ccc(NC(=O)c2ccccc2Br)cc1 | 9.42 |
| COc1ccc2c(C)c(C(=O)NCC(C)O)oc2c1OC (stereo not shown) | 6.93 |
| O=P(O)(O)CP(=O)(O)O | 3.83 |
| NC(=O)OCC(O)COc1ccc(Cl)cc1 (stereo not shown) | 9.22 |
| CCCC1(c2ccccc2)NC(=O)N(CC(=O)Nc2cc(C)ccc2OC)C1=O (stereo not shown) | 8.84 |
| Fc1cc(F)cc(-c2oncc2-c2nnnn2-c2ccccc2)c1 | 9.89 |
| CCOc1ccc(CCNC(=O)Cn2nc(C)c3c(C)n(-c4ccccc4)nc3c2=O)cc1OCC | 8.15 |
| C=CCn1c(SC(CCO)C(=O)NCc2ccco2)nc2sc3c(c2c1=O)CCC3 (stereo not shown) | 5.06 |
| CN(C(=O)CSc1nnc(COc2ccccc2F)n1N)C1CCS(=O)(=O)C1 (stereo not shown) | 12.7 |
| CC(C)(C)c1ccc(C2SCC(=O)N2c2cccc(C(=O)O)c2)cc1 (stereo not shown) | 16 |
| NS(=O)(=O)c1cccc(NC(=O)c2cccnc2Oc2ccccc2)c1 | 10.6 |

| SMILES | hERG current change (%, negative = inhibition) at 1uM [%] |
| --- | --- |
| O=c1[nH]c(-c2ccc(Cl)cc2)cs1 | -1.9 |
| CCOC(=O)NN=C1CCC(c2ccccc2)CC1 (stereo not shown) | 11.7 |
| COc1ccc(/C=C/C(=O)NCCOc2ccc(C)cc2)cc1 | 10.5 |
| CCOc1cccc(C(=O)NC(=S)Nc2cccnc2)c1 | 1.86 |
| Nn1c(Cc2cccc3ccccc23)nnc1SCC(=O)NCC1CCCO1 (stereo not shown) | 0.675 |
| CCc1nc(OCc2ccco2)c2sc3nc4c(cc3c2n1)COC(C)(C)C4 | 6.8 |
| CCOC(=O)CSc1nnc(CNC(=O)c2cc(OC)c(OC)c(OC)c2)n1C | 3.51 |
| O=C1c2cccc3cccc(c23)C(=O)N1CC1CCN(S(=O)(=O)c2ccc(F)cc2)CC1 | 5.7 |
| Cc1c(N=C2Nc3cccc4cccc2c34)c(=O)n(-c2ccccc2)n1C | 13.6 |
| CCOC(=O)C1CCCN(C(=O)c2ccc(S(=O)(=O)N3CCCC3)cc2)C1 (stereo not shown) | 16 |
| CS(=O)(=O)c1ccc(C(=O)NNC(=O)c2ccccc2-n2cccc2)cc1 | 15.4 |
| CCC(=O)Nc1ccc2c(c1)nc(CCN1CCCCC1)n2C | -0.837 |
| COc1ccc(NC(=O)CCn2c(=O)c3cccn3c3ccccc32)c(OC)c1 | 12.6 |
| Cc1c(C(=O)Nc2cccc(-c3nnc4n3CCCCC4)c2)oc2ccccc12 | 5.68 |
| CC(C)(C)NC(=O)CSc1nc2ccccc2c(=O)[nH]1 | 13.9 |
| O=C(C[n+]1cccc(CNC(=O)c2ccc(OC(F)F)cc2)c1)Nc1cccc(C(F)(F)F)c1.[Cl-] | 6.44 |
| CCOc1cccc(C(=O)N(Cc2ccco2)C2CCS(=O)(=O)C2)c1 (stereo not shown) | 2.6 |
| O=C(O)CCc1ccc(-c2cccs2)n1CC(=O)Nc1ccccc1C(F)(F)F | 15.7 |
| O=C(CNS(=O)(=O)c1ccccc1)N1CCc2ccccc2C1 | 11.4 |
| CC12COC3(C(=O)Nc4nccs4)CC1CCC32C (stereo not shown) | 9.81 |
| COc1ccc(N(CC(=O)O)S(C)(=O)=O)cc1OC | 7.4 |
| COc1cccc(CNC(=O)C2CC(=O)N(C3CCCCCCC3)C2)c1 (stereo not shown) | 19.6 |

| SMILES | hERG current change (%, negative = inhibition) at 1uM [%] |
| --- | --- |
| Cc1sc2ncn(CC(=O)NCc3ccccn3)c(=O)c2c1S(=O)(=O)N1CCOCC1 | 9.35 |
| CCOC(=O)C1=C(C)N=C2SCCC(=O)N2C1c1cccs1 (stereo not shown) | -11.6 |
| CCOC(=O)C1=C(C)N=C2SC(C)C(=O)N2C1c1cccc(F)c1 (stereo not shown) | -2.5 |
| Cc1ccc(NC(=O)Cn2cc3c(n2)CCC(C)C3)cc1 (stereo not shown) | 6.29 |
| N#C/C(=C(/O)c1ccccc1F)c1nc2cc(C(F)(F)F)ccc2s1 | 15.6 |
| O=C(CN1C(=O)C2CCCCC2C1=O)N1CCN(c2ncccn2)CC1 (stereo not shown) | 9.92 |
| Clc1ccc(CO/N=C2\CCCc3nonc32)c(Cl)c1 | 4.71 |
| COc1ccc(Cc2n[nH]c(=S)n(N)c2=O)cc1 | 15.6 |
| CN(C)S(=O)(=O)c1ccc(C(=O)NCC(c2cccs2)N2CCOCC2)cc1 (stereo not shown) | 8.86 |
| COc1ccc(-c2cc(C(F)(F)F)n3ncc(C(=O)NCC4CCCO4)c3n2)cc1OC (stereo not shown) | 14.6 |
| COCCN(Cc1ccccc1)C(=O)c1ccc2c(c1)NC(=O)CS2 | 11.4 |
| COc1cc(Cl)c(CN2CCCC(CO)(Cc3ccccc3F)C2)cc1OC (stereo not shown) | 6.94 |
| Cn1c(CNC(=O)c2ccccc2F)nnc1SCCOc1ccccc1 | 8.23 |
| COC(=O)C1=C(c2c(C)noc2C)C[C@@H]2CC[C@H]1N2C(=O)NCCCOC(C)C | 5.06 |
| CCN(CC)C(CNS(=O)(=O)c1ccc(Cl)cc1)c1ccccc1 (stereo not shown) | 9.21 |
| CC1CC(C)CN(C(=O)COC(=O)C2CCN(S(=O)(=O)c3ccc4c(c3)OCCO4)CC2)C1 (stereo not shown) | 15.4 |
| CN=C1S/C(=C\c2cc(C)n(-c3ccccc3F)c2C)C(=O)N1C | 3.99 |
| Cn1c(-c2cccc([N+](=O)[O-])c2)cnc1NCc1ccc(C#N)cc1.O=C(O)C(=O)O | -56.4 |
| Cc1ccc(N(CC(=O)N2CCCC2)S(C)(=O)=O)c(C)c1 | 16.6 |
| Cc1ccc(CNC(=O)c2cccnc2Sc2cccc(Cl)c2)cc1 | -0.474 |
| COc1ccc(OC)c(CC(NC(C)=O)C(=O)NC2CCN(c3cc(C)nc4ncnn34)CC2)c1 (stereo not shown) | 37.2 |
| O=C(NC(=O)C(F)(F)F)Nc1ccc(S(=O)(=O)Nc2nccs2)cc1 | 15.5 |
